According to the supplement of paper PMC4604168 (melanoma cell lines):
This is one part of the list. Many values rest on one well or one pass, so single values are uncertain.

Tests used:
Experiment in all cases: cell count relative to DMSO control; melanoma cells; higher = more viable cells
Conditions in all cases: library dose: standard library concentration; 72 h
G361 = system: G361
IPC-298 = system: IPC-298
IST-MEL1 = system: IST-MEL1
LB2518-MEL = system: LB2518-MEL
LOXIMVI = system: LOXIMVI
MEL-HO = system: MEL-HO
MZ2-MEL = system: MZ2-MEL
MeWo = system: MeWo
RPMI7951 = system: RPMI7951
RVH-421 = system: RVH-421
SkMel28 = system: SkMel28
SkMel2 = system: SkMel2
SkMel30 = system: SkMel30
SkMel5 = system: SkMel5
UACC257 = system: UACC257
UACC62 = system: UACC62
WM115 = system: WM115
WM1716 = system: WM1716
WM1745 = system: WM1745
WM3526 = system: WM3526
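Note: cells treated in 1,536-well plates, then fixed and DAPI-stained, with nuclei counted from automated high-throughput microscope images.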

Compound	cell count (G361)	cell count (IPC-298)	cell count (IST-MEL1)	cell count (LB2518-MEL)	cell count (LOXIMVI)	cell count (MEL-HO)	cell count (MZ2-MEL)	cell count (MeWo)	cell count (RPMI7951)	cell count (RVH-421)	cell count (SkMel28)	cell count (SkMel2)	cell count (SkMel30)	cell count (SkMel5)	cell count (UACC257)	cell count (UACC62)	cell count (WM115)	cell count (WM1716)	cell count (WM1745)	cell count (WM3526)
C[As](C)SC[C@H](NC(=O)CC[C@H](N)C(=O)O)C(=O)NCC(=O)O [Darinaparsin] + Cc1nc(Nc2ncc(C(=O)Nc3c(C)cccc3Cl)s2)cc(N2CCN(CCO)CC2)n1 [dasatanib] (first compound 2 µM, partner dose 0.02 µM)	65.8%	86.6%	63.8%	65.4%	16.4%	74.9%	51.6%	71.1%	32.5%	42.3%	56.9%	86.7%	74.5%	47.2%	54.8%	80.7%	63.9%	42.4%	31.4%	65.6%
N.N.[Cl][Pt][Cl] [cisplatin] + Nc1cccc2c1CN(C1CCC(=O)NC1=O)C2=O [lenalidomide] (first compound 8 µM, partner dose 5 µM)	81.6%	103%	97.4%	81.3%	102%	107%	112%	111%	73.8%	55.5%	87.8%	102%	94.5%	117%	81.3%	69.7%	90.7%	96.8%	127%	104%
N.N.[Cl][Pt][Cl] [cisplatin] + Cn1c(Nc2ccc(C(F)(F)F)cc2)nc2cc(Oc3ccnc(-c4ncc(C(F)(F)F)[nH]4)c3)ccc21 [CHIR265] (first compound 8 µM, partner dose 0.4 µM)	91%	96.1%	85.7%	89%	96.3%	97.8%	83.8%	83.7%	95.5%	92.3%	63.6%	106%	67.9%	67.8%	72.4%	68.6%	79.1%	85.8%	82.3%	59.6%
C[As](C)SC[C@H](NC(=O)CC[C@H](N)C(=O)O)C(=O)NCC(=O)O [Darinaparsin] + C=CCn1c(=O)c2cnc(Nc3ccc(N4CCN(C)CC4)cc3)nc2n1-c1cccc(C(C)(C)O)n1 [MK1775] (first compound 2 µM, partner dose 0.1 µM)	54.9%	67.4%	81.7%	52.5%	57.9%	76.8%	101%	45.3%	48%	73.7%	32.7%	65.4%	58.7%	30.1%	75.5%	68.8%	50%	58.6%	42.7%	54.4%
Cn1cc(C2=C(c3cn(C4CCN(Cc5ccccn5)CC4)c4ccccc34)C(=O)NC2=O)c2ccccc21 [Enzastaurin] + C[C@@H]1CCN(C(=O)CC#N)C[C@@H]1N(C)c1ncnc2[nH]ccc12 [CP690550] (first compound 4 µM, partner dose 5 µM)	85.8%	99.4%	95.3%	63.8%	105%	101%	121%	81.5%	72.4%	53%	120%	78.4%	110%	108%	113%	104%	148%	81.8%	66.8%	90.7%
C[As](C)SC[C@H](NC(=O)CC[C@H](N)C(=O)O)C(=O)NCC(=O)O [Darinaparsin] + CCN(CC)CCCCNc1ncc2cc(-c3cc(OC)cc(OC)c3)c(NC(=O)NC(C)(C)C)nc2n1 [PD173074] (first compound 2 µM, partner dose 0.5 µM)	93.9%	100%	109%	150%	111%	95.5%	97.6%	100%	134%	96.8%	124%	110%	88.5%	77.6%	106%	85.8%	79.3%	5.66%	87.7%	88.2%
Cn1cc(C2=C(c3cn(C4CCN(Cc5ccccn5)CC4)c4ccccc34)C(=O)NC2=O)c2ccccc21 [Enzastaurin] + CCCS(=O)(=O)Nc1ccc(F)c(C(=O)c2c[nH]c3ncc(Cl)cc23)c1F [PLX4720] (first compound 4 µM, partner dose 0.4 µM)	65.7%	67.4%	96.6%	91.4%	116%	95.5%	69%	104%	92%	78.1%	53%	108%	88.7%	65.4%	116%	55.6%	77.3%	68.6%	90.5%	61.6%
Cn1cc(C2=C(c3cn(C4CCN(Cc5ccccn5)CC4)c4ccccc34)C(=O)NC2=O)c2ccccc21 [Enzastaurin] + CS(=O)(=O)CCNCc1ccc(-c2ccc3ncnc(Nc4ccc(OCc5cccc(F)c5)c(Cl)c4)c3c2)o1 [lapatinib] (first compound 4 µM, partner dose 4 µM)	65.7%	74.9%	66.7%	44.1%	45.7%	72.8%	84.7%	72.6%	16%	64%	50.3%	55.6%	90.3%	64.7%	81.3%	42.7%	74.8%	67.9%	33.7%	74.8%
C[C@]12O[C@H](C[C@]1(O)CO)n1c3ccccc3c3c4c(c5c6ccccc6n2c5c31)CNC4=O [Lestaurtinib] + CC(=O)c1c(C)c2cnc(Nc3ccc(N4CCNCC4)cn3)nc2n(C2CCCC2)c1=O [palbociclib] (first compound 0.02 µM, partner dose 0.2 µM)	70.1%	52.3%	85.3%	56.8%	88.7%	79.5%	66.9%	62%	75.7%	78.9%	49.4%	83.7%	52%	51.6%	83.9%	84.4%	60%	46.9%	75.3%	59.2%
C[C@]12O[C@H](C[C@]1(O)CO)n1c3ccccc3c3c4c(c5c6ccccc6n2c5c31)CNC4=O [Lestaurtinib] + C[C@]1(O)C[C@@H](c2nc(-c3ccc4ccc(-c5ccccc5)nc4c3)c3c(N)nccn32)C1 [OSI906] (first compound 0.02 µM, partner dose 2 µM)	55.4%	54.6%	111%	67.3%	79%	82.2%	74.3%	56.8%	97.9%	105%	50.7%	51.4%	63%	45.8%	75.4%	71.9%	73.6%	87.5%	57.5%	47%
C[As](C)SC[C@H](NC(=O)CC[C@H](N)C(=O)O)C(=O)NCC(=O)O [Darinaparsin] + Cc1cc(SCc2sc(-c3ccc(C(F)(F)F)c(F)c3)nc2C)ccc1OCC(=O)O [GW0742] (first compound 2 µM, partner dose 10 µM)	97.8%	107%	96%	105%	97.2%	107%	115%	94.3%	103%	107%	117%	100%	103%	80.5%	103%	99.6%	94.3%	69.6%	132%	83.1%
N.N.[Cl][Pt][Cl] [cisplatin] + COc1cc2c(Oc3ccc4[nH]c(C)cc4c3F)ncnc2cc1OCCCN1CCCC1 [cediranib] (first compound 8 µM, partner dose 2 µM)	103%	110%	96.7%	97.9%	79.4%	106%	98.9%	82.7%	96.7%	101%	74.9%	76.3%	82.9%	117%	111%	76.2%	76.1%	97.5%	97.2%	92.3%
C[As](C)SC[C@H](NC(=O)CC[C@H](N)C(=O)O)C(=O)NCC(=O)O [Darinaparsin] + Cn1nnc2c(C(N)=O)ncn2c1=O [temozolomide] (first compound 2 µM, partner dose 10 µM)	86.4%	81.7%	73.5%	107%	41.5%	89.7%	97.4%	76.6%	110%	86%	48.6%	89.8%	65.7%	49.5%	70.4%	63.5%	76.7%	55.2%	100%	67.9%
Cn1cc(C2=C(c3cn(C4CCN(Cc5ccccn5)CC4)c4ccccc34)C(=O)NC2=O)c2ccccc21 [Enzastaurin] + Cn1cncc1[C@@](N)(c1ccc(Cl)cc1)c1ccc2c(c1)c(-c1cccc(Cl)c1)cc(=O)n2C [tipifarnib] (first compound 4 µM, partner dose 0.05 µM)	62.1%	107%	82.1%	40.7%	72.7%	109%	93.9%	83.3%	46.5%	58.8%	78.4%	64.4%	96.5%	88.4%	102%	70.5%	72.8%	71.9%	75.4%	81.9%
C[C@]12O[C@H](C[C@]1(O)CO)n1c3ccccc3c3c4c(c5c6ccccc6n2c5c31)CNC4=O [Lestaurtinib] + O=C(Nc1cccc(Cl)c1)Nc1ncc(CCNc2ncnc3ccsc23)s1 [SNS314] (first compound 0.02 µM, partner dose 0.004 µM)	82.5%	84.1%	58.9%	58.3%	61.9%	69.2%	77%	55.3%	48.4%	77.5%	35%	105%	104%	52%	73.2%	78.8%	46.6%	45%	69.8%	63.9%
Cn1cc(C2=C(c3cn(C4CCN(Cc5ccccn5)CC4)c4ccccc34)C(=O)NC2=O)c2ccccc21 [Enzastaurin] + O=C(O)c1ccc2c(c1)nc(Nc1cccc(Cl)c1)c1ccncc12 [CX4945] (first compound 4 µM, partner dose 2 µM)	63.2%	72%	80.6%	64.8%	48.6%	67.4%	77.8%	87.7%	44.7%	50.9%	63.3%	56.6%	88.4%	82.4%	96%	63.3%	108%	73.6%	36.2%	70.3%
Cn1cc(C2=C(c3cn(C4CCN(Cc5ccccn5)CC4)c4ccccc34)C(=O)NC2=O)c2ccccc21 [Enzastaurin] + C=CCn1c(=O)c2cnc(Nc3ccc(N4CCN(C)CC4)cc3)nc2n1-c1cccc(C(C)(C)O)n1 [MK1775] (first compound 4 µM, partner dose 0.1 µM)	64.8%	88.1%	101%	66.3%	97.6%	109%	124%	80.9%	30.1%	60%	40.8%	82.9%	95%	48.9%	97.8%	68.5%	82.9%	72.5%	42.8%	79.9%
